These are yes or no findings as the source states them, for the method shown. Some results given as binding are weak or reduced against the parent protein; the word gives no strength. For some assays here: Sequences can lack the tags named with a protein.
Legend:
[1] = molecular target: T1, eGFP-Mre11-10xHis (S. cerevisiae (SK1)) (UniProt P32829); assay: co-purification (sequential Ni-NTA and anti-FLAG affinity); eGFP-Mre11-10xHis, Rad50 and Xrs2-2xFLAG co-expressed in Sf9; soluble extract over Ni-NTA resin, then anti-FLAG M2 affinity gel
T1 sequence: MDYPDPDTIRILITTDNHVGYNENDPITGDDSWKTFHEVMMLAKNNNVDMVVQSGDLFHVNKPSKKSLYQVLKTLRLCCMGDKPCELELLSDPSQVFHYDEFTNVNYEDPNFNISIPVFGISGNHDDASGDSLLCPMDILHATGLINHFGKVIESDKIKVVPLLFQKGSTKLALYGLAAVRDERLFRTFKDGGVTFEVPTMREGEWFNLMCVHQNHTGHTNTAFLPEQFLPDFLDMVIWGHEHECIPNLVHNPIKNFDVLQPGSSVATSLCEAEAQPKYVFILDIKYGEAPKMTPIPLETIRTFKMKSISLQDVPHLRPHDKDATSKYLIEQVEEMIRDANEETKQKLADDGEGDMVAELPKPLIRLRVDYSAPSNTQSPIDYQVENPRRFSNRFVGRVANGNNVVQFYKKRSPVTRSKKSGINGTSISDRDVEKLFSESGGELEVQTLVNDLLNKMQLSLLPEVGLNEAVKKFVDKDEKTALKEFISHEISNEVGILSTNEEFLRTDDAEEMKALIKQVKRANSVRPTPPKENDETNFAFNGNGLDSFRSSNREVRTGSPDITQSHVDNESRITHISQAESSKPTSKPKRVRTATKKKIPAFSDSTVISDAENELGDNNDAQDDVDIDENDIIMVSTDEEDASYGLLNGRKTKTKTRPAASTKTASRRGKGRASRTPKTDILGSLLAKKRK

[2] = molecular target: T2, Mer2, full length, two-hybrid bait (pGBDU-C1-Mer2) (S. cerevisiae) (UniProt P21651); assay: two-hybrid; pGBDU-C1 bait (Mer2) and pGAD-C1 prey (Mre11) co-transformed into yWL365; dilution series on SC-Leu-Ura-His + 25 mM 3-AT, 4-5 days at 30 °C
T2 sequence: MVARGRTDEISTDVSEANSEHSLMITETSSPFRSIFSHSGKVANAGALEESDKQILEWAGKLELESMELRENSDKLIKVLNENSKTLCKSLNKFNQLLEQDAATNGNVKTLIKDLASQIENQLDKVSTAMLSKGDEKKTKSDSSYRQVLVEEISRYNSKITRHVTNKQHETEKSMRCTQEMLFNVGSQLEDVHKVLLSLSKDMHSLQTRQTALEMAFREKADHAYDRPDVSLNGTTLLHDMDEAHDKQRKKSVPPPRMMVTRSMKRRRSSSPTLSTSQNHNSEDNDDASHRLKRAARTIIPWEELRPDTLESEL

| Binder | binding [1] | binding [2] |
| --- | --- | --- |
| Rad50 (protein, UniProt P12753 1-1312) MSAIYKLSIQGIRSFDSNDRETIEFGKPLTLIVGMNGSGKTTIIECLKYATTGDLPPNSKGGVFIHDPKITGEKDIRAQVKLAFTSANGLNMIVTRNIQLLMKKTTTTFKTLEGQLVAINNSGDRSTLSTRSLELDAQVPLYLGVPKAILEYVIFCHQEDSLWPLSEPSNLKKKFDEIFQAMKFTKALDNLKSIKKDMSVDIKLLKQSVEHLKLDKDRSKAMKLNIHQLQTKIDQYNEEVSEIESQLNEITEKSDKLFKSNQDFQKILSKVENLKNTKLSISDQVKRLSNSIDILDLSKPDLQNLLANFSKVLMDKNNQLRDLETDISSLKDRQSSLQSLSNSLIRRQGELEAGKETYEKNRNHLSSLKEAFQHKFQGLSNIENSDMAQVNHEMSQFKAFISQDLTDTIDQFAKDIQLKETNLSDLIKSITVDSQNLEYNKKDRSKLIHDSEELAEKLKSFKSLSTQDSLNHELENLKTYKEKLQSWESENIIPKLNQKIEEKNNEMIILENQIEKFQDRIMKTNQQADLYAKLGLIKKSINTKLDELQKITEKLQNDSRIRQVFPLTQEFQRADLEMDFQKLFINMQKNIAINNKKMHELDRRYTNALYNLNTIEKDLQDNQKSKEKVIQLLSENLPEDCTIDEYNDVLEETELSYKTALENLKMHQTTLEFNRKALEIAERDSCCYLCSRKFENESFKSKLLQELKTKTDANFEKTLKDTVQNEKEYLHSLRLLEKHIITLNSINEKIDNSQKCLEKAKEETKTSKSKLDELEVDSTKLKDEKELAESEIRPLIEKFTYLEKELKDLENSSKTISEELSIYNTSEDGIQTVDELRDQQRKMNDSLRELRKTISDLQMEKDEKVRENSRMINLIKEKELTVSEIESSLTQKQNIDDSIRSKRENINDIDSRVKELEARIISLKNKKDEAQSVLDKVKNERDIQVRNKQKTVADINRLIDRFQTIYNEVVDFEAKGFDELQTTIKELELNKAQMLELKEQLDLKSNEVNEEKRKLADSNNEEKNLKQNLELIELKSQLQHIESEISRLDVQNAEAERDKYQEESLRLRTRFEKLSSENAGKLGEMKQLQNQIDSLTHQLRTDYKDIEKNYHKEWVELQTRSFVTDDIDVYSKALDSAIMKYHGLKMQDINRIIDELWKRTYSGTDIDTIKIRSDEVSSTVKGKSYNYRVVMYKQDVELDMRGRCSAGQKVLASIIIRLALSETFGANCGVIALDEPTTNLDEENIESLAKSLHNIINMRRHQKNFQLIVITHDEKFLGHMNAAAFTDHFFKVKRDDRQKSQIEWVDINRVTY | binds |  |
| Xrs2-2xFlag (protein, UniProt P33301 1-854) MWVVRYQNTLEDGSISFISCCLQAFKTYSIGRSSKNPLIIKNDKSISRQHITFKWEINNSSDLKHSSLCLVNKGKLTSLNKKFMKVGETFTINASDVLKSTIIELGTTPIRIEFEWINEVWNIPPHLTQFRTMLSEYGISTEISINDIPANLMISDYPKSEDNSIRELYALVSTIPMKKSRFLMELCNTLLPTSKTNLKFDEMWNDMISNPEYNVFDFDPNILLSKFMRLNNIRVLTTIKSEPRLSSLLRTFNINLFAFDNIDSLYKYVDSLEASTEYLILTTTDKKENGKILCTIKTMLTSIIDGTLSAVINMKGASSRTLDNGKFDQISEGMSTILKTSRAPEVEASPVVSKKRKLNRRRVLPLDSLDFFAGGLSTKTLSENRSLTDAKRLNCGAESKTVISSPNIAEADEKHAPFLQNALKPTEDIGKKSGHSSPGAIIVSSPNLGTVNTSEDSLDKSLQSHKLPQPSLPEVAGIGSQTISSNSADYETAAVNSMDDAEVTKNFRVNHHQNIEQPSKNIRKLSNYSREISSPLQENCKSPVKELSIKEKSGTPHAFVEAIQETKNREVKRVKSTIVELKDEELSEEAINQLKNLAIVEPSNNLLRKSFDSEGNKTSRTTEKWENSLMEPEWHKRKNFKTFVKVRPKSKAHKEEGKNNTQSSDFIRNAAFLITRNYVPLKKYSKKDTTTKWGTEENEDMFALTEMERFGSNTFMSDNINSNTIQKRSQALNRFTNEDSSNEGEEDSFSFSRCSGTAASVQPLKNKIFITDEDDLGDIDDKSDRLNHRENNRNLFVVKEMNLRPNLSEECSKQSRHSRSATSRSRGSFGASNNGDGDDDDDDGPKFTFKRRKG | binds |  |
| Mre11, full length, two-hybrid prey (pGAD-C1-Mre11) (protein, UniProt P32829 1-692) MDYPDPDTIRILITTDNHVGYNENDPITGDDSWKTFHEVMMLAKNNNVDMVVQSGDLFHVNKPSKKSLYQVLKTLRLCCMGDKPCELELLSDPSQVFHYDEFTNVNYEDPNFNISIPVFGISGNHDDASGDSLLCPMDILHATGLINHFGKVIESDKIKVVPLLFQKGSTKLALYGLAAVRDERLFRTFKDGGVTFEVPTMREGEWFNLMCVHQNHTGHTNTAFLPEQFLPDFLDMVIWGHEHECIPNLVHNPIKNFDVLQPGSSVATSLCEAEAQPKYVFILDIKYGEAPKMTPIPLETIRTFKMKSISLQDVPHLRPHDKDATSKYLIEQVEEMIRDANEETKQKLADDGEGDMVAELPKPLIRLRVDYSAPSNTQSPIDYQVENPRRFSNRFVGRVANGNNVVQFYKKRSPVTRSKKSGINGTSISDRDVEKLFSESGGELEVQTLVNDLLNKMQLSLLPEVGLNEAVKKFVDKDEKTALKEFISHEISNEVGILSTNEEFLRTDDAEEMKALIKQVKRANSVRPTPPKENDETNFAFNGNGLDSFRSSNREVRTGSPDITQSHVDNESRITHISQAESSKPTSKPKRVRTATKKKIPAFSDSTVISDAENELGDNNDAQDDVDIDENDIIMVSTDEEDASYGLLNGRKTKTKTRPAASTKTASRRGKGRASRTPKTDILGSLLAKKRK |  | binds |
| Mre11-SIM3 mutant, two-hybrid prey (pGAD-C1-Mre11-SIM3) (protein, UniProt P32829 1-692) MDYPDPDTIRILITTDNHVGYNENDPITGDDSWKTFHEVMMLAKNNNVDMVVQSGDLFHVNKPSKKSLYQVLKTLRLCCMGDKPCELELLSDPSQVFHYDEFTNVNYEDPNFNISIPVFGISGNHDDASGDSLLCPMDILHATGLINHFGKVIESDKIKVVPLLFQKGSTKLALYGLAAVRDERLFRTFKDGGVTFEVPTMREGEWFNLMCVHQNHTGHTNTAFLPEQFLPDFLDMVIWGHEHECIPNLVHNPIKNFDVLQPGSSVATSLCEAEAQPKYVFILDIKYGEAPKMTPIPLETIRTFKMKSISLQDVPHLRPHDKDATSKYLIEQVEEMIRDANEETKQKLADDGEGDMVAELPKPLIRLRVDYSAPSNTQSPIDYQVENPRRFSNRFVGRVANGNNVVQFYKKRSPVTRSKKSGINGTSISDRDVEKLFSESGGELEVQTLVNDLLNKMQLSLLPEVGLNEAVKKFVDKDEKTALKEFISHEISNEVGILSTNEEFLRTDDAEEMKALIKQVKRANSVRPTPPKENDETNFAFNGNGLDSFRSSNREVRTGSPDITQSHVDNESRITHISQAESSKPTSKPKRVRTATKKKIPAFSDSTVISDAENELGDNNDAQDDVDIDENDAAAAATDEEDASYGLLNGRKTKTKTRPAASTKTASRRGKGRASRTPKTDILGSLLAKKRK |  | binds |
| Mre11-LLK, two-hybrid prey (pGAD-C1-Mre11-LLK) (protein, UniProt P32829 1-692) MDYPDPDTIRILITTDNHVGYNENDPITGDDSWKTFHEVMMLAKNNNVDMVVQSGDLFHVNKPSKKSLYQVLKTLRLCCMGDKPCELELLSDPSQVFHYDEFTNVNYEDPNFNISIPVFGISGNHDDASGDSLLCPMDILHATGLINHFGKVIESDKIKVVPLLFQKGSTKLALYGLAAVRDERLFRTFKDGGVTFEVPTMREGEWFNLMCVHQNHTGHTNTAFLPEQFLPDFLDMVIWGHEHECIPNLVHNPIKNFDVLQPGSSVATSLCEAEAQPKYVFILDIKYGEAPKMTPIPLETIRTFKMKSISLQDVPHLRPHDKDATSKYLIEQVEEMIRDANEETKQKLADDGEGDMVAELPKPLIRLRVDYSAPSNTQSPIDYQVENPRRFSNRFVGRVANGNNVVQFYKKRSPVTRSKKSGINGTSISDRDVEKLFSESGGELEVQTLVNDLLNKMQLSLLPEVGLNEAVKKFVDKDEKTALKEFISHEISNEVGILSTNEEFLRTDDAEEMKALIKQVKRANSVRPTPPKENDETNFAFNGNGLDSFRSSNREVRTGSPDITQSHVDNESRITHISQAESSKPTSKPKRVRTATKKKIPAFSDSTVISDAENELGDNNDAQDDVDIDENDIIMVSTDEEDASYGLLNGRKTKTKTRPAASTKTASRRGKGRASRTPKTDIAGSALAKARK |  | no binding |
